Data reported in the supplement of paper PMC12217912.
This is one part of the list. The full chains were built here from the parent and the listed change. Inactive controls read about 0.05.

B1: TEV protease; numbered along this chain (parent)
chain: MGESLFKGPRDYNPISSSICHLTNESDGHTTSLYGIGFGPFIITNKHLFRRNNGTLVVQSLHGVFKVKDTTTLQQHLVDGRDMIIIRMPKDFPPFPQKLKFREPQREERICLVTTNFQTKSMSSMVSDTSCTFPSGDGIFWKHWIQTKDGQCGSPLVSTRDGFIVGIHSASNFTNTNNYFTSVPKNFMELLTNQEAQQWVSGWRLNADSVLWGGHKVFMVKPEEPFQPVKEATQL

Variants of: B1
Assay: raw area under fraction-flipped curve 0-4 h after induction (AUC4h, not background-subtracted), DNA-recorder readout of cleavage of the substrate (dimensionless); higher = more cleavage of the substrate by the protease variant
Conditions: temperature: 34 °C; time window: 0-4 h after rhamnose induction
Protocol: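 In vivo DNA recorder in E. coli TOP10(DE3) ΔrhaA at 34 °C. Each TEVp single-site mutant (parent TEVp 0) is paired with a single-site variant of the 7-mer TEVs (canonical ENLYFQ|S). The substrate sits between flexible linkers in a Bxb1-sfGFP-TEVs-SsrA fusion, so cleavage stabilises Bxb1 and speeds flipping of a recombination array, read by NGS. The value is the raw area under the fraction-flipped curve over 0-4 h after rhamnose induction (AUC4h), with ≥20 reads per time point. It is not background-subtracted; inactive controls average about 0.047.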
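Note: Bxb1 expression induced with 0.2% (w/v) L-rhamnose at OD600 near 0.5, cultures sampled hourly, flipped fraction per protease–substrate barcode pair counted by paired-end Illumina sequencing.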

Row | Variant | area with substrate ENAYFQS | area with substrate ENCYFQS | area with substrate ENDYFQS | area with substrate ENEYFQS | area with substrate ENFYFQS | area with substrate ENGYFQS | area with substrate ENHYFQS | area with substrate ENKYFQS | area with substrate ENMYFQS | area with substrate ENNYFQS | area with substrate ENPYFQS | area with substrate ENQYFQS | area with substrate ENSYFQS | area with substrate ENTYFQS | area with substrate ENVYFQS | area with substrate ENIYFQS | area with substrate ENWYFQS | area with substrate ENYYFQS | area with substrate ENRYFQS
1 | MGESLFKGPRDYNPVSSSICHLTNESDGHTTSLYGIGFGPFIITNKHLFRRNNGTLVVQSLHGVFKVKDTTTLQQHLVDGRDMIIIRMPKDFPPFPQKLKFREPQREERICLVTTNFQTKSMSSMVSDTSCTFPSGDGIFWKHWIQTKDGQCGSPLVSTRDGFIVGIHSASNFTNTNNYFTSVPKNFMELLTNQEAQQWVSGWRLNADSVLWGGHKVFMVKPEEPFQPVKEATQL [I15V] | 0.0653 | 0.0638 | 0.0609 | 0.0566 | 0.0638 | 0.0512 | 0.0464 | 0.0595 | 0.0738 | 0.0596 | 0.0575 | 0.0588 | 0.0471 | 0.0692 | 0.0736 | – | – | – | –
2 | MGESLFKGPRDYNPISSSICHFTNESDGHTTSLYGIGFGPFIITNKHLFRRNNGTLVVQSLHGVFKVKDTTTLQQHLVDGRDMIIIRMPKDFPPFPQKLKFREPQREERICLVTTNFQTKSMSSMVSDTSCTFPSGDGIFWKHWIQTKDGQCGSPLVSTRDGFIVGIHSASNFTNTNNYFTSVPKNFMELLTNQEAQQWVSGWRLNADSVLWGGHKVFMVKPEEPFQPVKEATQL [L22F] | 0.0394 | 0.0219 | 0.0538 | 0.0553 | 0.0322 | 0.054 | – | 0.0574 | 0.0681 | – | 0.0654 | 0.0594 | 0.0485 | 0.0446 | – | 0.0733 | 0.0064 | 0.059 | –
3 | MGESLFKGPRDYNPISSSICHLTNESDVHTTSLYGIGFGPFIITNKHLFRRNNGTLVVQSLHGVFKVKDTTTLQQHLVDGRDMIIIRMPKDFPPFPQKLKFREPQREERICLVTTNFQTKSMSSMVSDTSCTFPSGDGIFWKHWIQTKDGQCGSPLVSTRDGFIVGIHSASNFTNTNNYFTSVPKNFMELLTNQEAQQWVSGWRLNADSVLWGGHKVFMVKPEEPFQPVKEATQL [G28V] | 0.0649 | – | 0.0548 | 0.056 | 0.0615 | 0.0699 | – | 0.0548 | 0.0562 | 0.0672 | 0.0541 | 0.0493 | 0.0505 | 0.0568 | 0.066 | – | – | 0.0626 | 0.0564
4 | MGESLFKGPRDYNPISYSICHLTNESDGHTTSLYGIGFGPFIITNKHLFRRNNGTLVVQSLHGVFKVKDTTTLQQHLVDGRDMIIIRMPKDFPPFPQKLKFREPQREERICLVTTNFQTKSMSSMVSDTSCTFPSGDGIFWKHWIQTKDGQCGSPLVSTRDGFIVGIHSASNFTNTNNYFTSVPKNFMELLTNQEAQQWVSGWRLNADSVLWGGHKVFMVKPEEPFQPVKEATQL [S17Y] | 0.0653 | 0.0729 | 0.0578 | 0.0613 | 0.0619 | 0.0573 | 0.0622 | 0.0635 | 0.077 | 0.0562 | 0.0631 | 0.0566 | 0.0636 | 0.0595 | 0.077 | 0.135 | 0.0397 | – | 0.0498
5 | MGESLFKGPRDYNPISSSIKHLTNESDGHTTSLYGIGFGPFIITNKHLFRRNNGTLVVQSLHGVFKVKDTTTLQQHLVDGRDMIIIRMPKDFPPFPQKLKFREPQREERICLVTTNFQTKSMSSMVSDTSCTFPSGDGIFWKHWIQTKDGQCGSPLVSTRDGFIVGIHSASNFTNTNNYFTSVPKNFMELLTNQEAQQWVSGWRLNADSVLWGGHKVFMVKPEEPFQPVKEATQL [C20K] | 0.054 | 0.0324 | 0.051 | 0.0517 | 0.0668 | 0.0444 | 0.0477 | 0.0579 | 0.0723 | 0.0467 | 0.049 | 0.0448 | – | 0.0493 | 0.0443 | 0.0489 | 0.0395 | – | 0.0507
6 | MGESLFKGPRDYNPISSSIYHLTNESDGHTTSLYGIGFGPFIITNKHLFRRNNGTLVVQSLHGVFKVKDTTTLQQHLVDGRDMIIIRMPKDFPPFPQKLKFREPQREERICLVTTNFQTKSMSSMVSDTSCTFPSGDGIFWKHWIQTKDGQCGSPLVSTRDGFIVGIHSASNFTNTNNYFTSVPKNFMELLTNQEAQQWVSGWRLNADSVLWGGHKVFMVKPEEPFQPVKEATQL [C20Y] | 0.0616 | 0.0453 | 0.0532 | 0.0296 | 0.0533 | – | 0.0706 | 0.045 | 0.0569 | 0.0366 | 0.0372 | 0.0553 | 0.0478 | – | – | 0.0664 | – | – | –
7 | MGESLFKGPRDYNPIPSSICHLTNESDGHTTSLYGIGFGPFIITNKHLFRRNNGTLVVQSLHGVFKVKDTTTLQQHLVDGRDMIIIRMPKDFPPFPQKLKFREPQREERICLVTTNFQTKSMSSMVSDTSCTFPSGDGIFWKHWIQTKDGQCGSPLVSTRDGFIVGIHSASNFTNTNNYFTSVPKNFMELLTNQEAQQWVSGWRLNADSVLWGGHKVFMVKPEEPFQPVKEATQL [S16P] | 0.0529 | 0.0729 | – | 0.063 | – | 0.0739 | 0.0647 | 0.0532 | – | 0.0615 | 0.0655 | 0.0853 | 0.0579 | 0.061 | 0.0732 | 0.154 | 0.102 | – | –
8 | MGESLFKGPRDFNPISSSICHLTNESDGHTTSLYGIGFGPFIITNKHLFRRNNGTLVVQSLHGVFKVKDTTTLQQHLVDGRDMIIIRMPKDFPPFPQKLKFREPQREERICLVTTNFQTKSMSSMVSDTSCTFPSGDGIFWKHWIQTKDGQCGSPLVSTRDGFIVGIHSASNFTNTNNYFTSVPKNFMELLTNQEAQQWVSGWRLNADSVLWGGHKVFMVKPEEPFQPVKEATQL [Y12F] | 0.0605 | 0.066 | 0.0636 | 0.054 | – | 0.0611 | – | 0.061 | 0.0939 | 0.0611 | 0.0656 | 0.0553 | 0.0622 | 0.0569 | 0.0804 | 0.111 | – | – | 0.0666
